# According to PubChem BioAssay AID2202238 (Ras Initiative Chemistry Research Team, Frederick National …, 2025):
# The list shows a part of the results. Further columns of the screen follow, without active or inactive calls.
# Biological target: GTPase KRas (Homo sapiens) (UniProt P01116)
# Test: Cysteine mutants labelled by reactive fragments (mass read-out) (AID 2202238)
# Design: protein at 5 µM with 500 µM competing thiol for 1.5 h
# Details: KRAS G12D cysteine mutants, disulfide tethering, MALDI-TOF labeling, stronger effect = higher value, fragment at 500 µM
# [1] = measured here: G60C mutant labeling
# [2] = measured here: G75C mutant labeling
# [3] = measured here: H94C mutant labeling
# [4] = measured here: I36C mutant labeling
# [5] = measured here: L120C mutant labeling
# [6] = measured here: M67C mutant labeling
# [7] = measured here: M72C mutant labeling
# [8] = measured here: N26C mutant labeling
# [9] = measured here: N86C mutant labeling
# [10] = measured here: P121C mutant labeling
# [11] = measured here: S122C mutant labeling
# [12] = measured here: S136C mutant labeling
# Sequence of UniProt P01116 (P01116 whole entry, looked up, the tested form may be a part): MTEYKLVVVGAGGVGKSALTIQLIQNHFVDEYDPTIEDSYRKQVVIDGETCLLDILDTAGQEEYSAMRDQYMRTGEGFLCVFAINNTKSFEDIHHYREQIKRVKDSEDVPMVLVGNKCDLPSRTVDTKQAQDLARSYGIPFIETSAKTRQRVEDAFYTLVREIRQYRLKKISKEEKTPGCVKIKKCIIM
SMILES,percent labeling [1] [%],percent labeling [2] [%],percent labeling [3] [%],percent labeling [4] [%],percent labeling [5] [%],percent labeling [6] [%],percent labeling [7] [%],percent labeling [8] [%],percent labeling [9] [%],percent labeling [10] [%],percent labeling [11] [%],percent labeling [12] [%]
O=C(NCCS)C1CCN(S(=O)(=O)c2ccc(F)cc2Cl)CC1,15.9,7.8,10.4,10.2,13.4,11,22.6,26.1,8.1,10.5,8.8,14.8
Cc1nn(CCO)cc1CNC(=O)CCS,,8.2,29.7,38,29.4,34,16,,16.8,33.7,37.6,44.9
O=C(NCCS)C1(C(F)(F)F)CCCCO1 (stereo not given),38.7,16.8,32.2,22.3,36,25,26.5,32.3,37.9,32.5,32,37.6
O=C(NCCS)c1c[nH]cc1-c1cc(Cl)c2c(c1)OCCO2,34.1,26.8,29.7,7.9,18.9,13.9,38.8,15.6,6,9.7,4.1,10
O=C(NCCS)c1ncsc1-c1ccccc1,47.9,21.3,36.5,16.2,31.2,21.9,37,35.8,23.5,23.2,13,34.7
O=C(NCCS)c1cc(-c2ccc3c(c2)OCO3)n[nH]1,17.9,14.9,10.5,8.3,20.2,6.1,59.5,28.5,13,11,11.1,15.9
CCn1cc(C(=O)NCCS)c(C(F)(F)F)n1,58.3,18.2,35,23.5,41.4,32.5,33.8,40.2,38.5,32.3,35.9,44.3
O=C(NCCS)c1cc(N2CCNC2=O)c(F)cc1F,39.6,15.6,40.5,25.4,44.1,34.4,28.3,41,32.3,31.7,32,63.2
O=C(NCCS)c1cc(Oc2cccc(Br)c2)ccn1,15.2,9.9,8.6,3.6,9.3,6.1,42.7,18.6,7.9,7.8,3.2,5.5
CN(C)Cc1cnn2c1CN(C(=O)CCS)CC2,,11.9,28.1,48,26.4,38.9,19.8,,13.9,28.1,29.2,50.2
O=C(CCS)NCc1ccc2cnccc2c1,,13.9,22.7,29.6,24.5,40.2,28.6,,22.1,30.3,24.6,40.3
O=C(CCS)Nc1ccc(-c2cn3ccsc3n2)cc1,,4.2,5.6,18,9,8.9,34.6,,4,7.5,6.6,16.3
O=C(CCS)NC1Cc2[nH]ncc2C(C(F)(F)F)C1 (stereo not given),,16,39,37.7,33.9,38.4,30.8,,33.1,34.9,32.8,54.4
Cc1cc(=O)cc(C)n1CCCC(=O)NCCS,20.9,8,25,22.6,24.2,26.9,9.7,28.8,17.3,24.3,20.2,30.9
Cc1cc(N2CCC(N(C)C(=O)CCS)CC2)nc(C)n1,,15.1,38.2,36.2,30.5,50.3,24,,30.3,30.8,33.4,62
Cn1cc(-c2cc(C(F)(F)F)nn2CCCNC(=O)CCS)cn1,,12.5,30.4,39.6,20.2,25.9,23.4,,18,25.8,25.9,53.2
O=C(CCS)N1CCC(Cc2cccc(F)c2)CC1,,16.8,26.8,21.4,24.2,32.5,38.7,,21.2,27.4,19.8,50
O=C(CCS)Nc1cccnc1Oc1ccccc1,,11.3,25.6,18.6,24.4,24.1,22.8,,6.7,25.1,22.3,63.5
CN1CCn2nc(NC(=O)CCS)cc2C1,,11.2,23.7,25.9,33.6,31.1,25.3,,22.6,29.5,33.5,43.5
Cc1oc2ccccc2c1CN(C)C(=O)CCS,,25.4,38.6,25.4,19.5,42.6,52.5,,21.4,24,20.2,56.2
O=C(NCCS)c1nccnc1C(=O)NCc1ccc(F)cc1,39.3,17.3,38.2,29.6,66.6,34.9,39.9,42.1,17.8,33.8,29.2,44.3
O=C(CCS)Nc1ccccc1OCC(F)(F)F,,15.2,40.3,25.7,33.5,30.9,32.8,,25.3,26.8,27.6,47.6
O=C(NCCS)c1[nH]nc2c1COc1ccccc1-2,9.7,5.4,10.5,12.7,18.4,14.8,57.2,22.1,19.8,15.4,14.1,21.8
O=C(Nc1cn[nH]c1)C1CCN(C(=O)CCS)C1 (stereo not given),,12.1,24.2,35.9,29.8,35.9,14.5,,26.3,30.6,31.7,50.9

SMILES,percent labeling [1] [%],percent labeling [2] [%],percent labeling [3] [%],percent labeling [4] [%],percent labeling [5] [%],percent labeling [6] [%],percent labeling [7] [%],percent labeling [8] [%],percent labeling [9] [%],percent labeling [10] [%],percent labeling [11] [%],percent labeling [12] [%]
CS(=O)(=O)C[C@@H]1C[C@H](F)CN1C(=O)CCS,,5,28.6,27.5,25.6,33.7,12.9,,33.8,30.2,33.5,43.1
Cn1cc(C2(C(=O)NCCS)CCCO2)cn1 (stereo not given),20.4,7.2,23.1,19,24.3,22.2,11,32.6,23.1,25.5,27.4,36.6
CC(NC(=O)NCC(=O)NCCS)c1ccco1 (stereo not given),22.7,9.4,25,18.1,35.1,21.7,14.5,29.3,19.3,26.8,24.4,31.5
O=C(CN1C(=O)c2ccccc2C(F)(F)C1=O)NCCS,14.5,11.5,19.8,12.7,53.3,16.5,11.5,22.7,20.4,23.8,28.3,25.2
CC(NC(=O)CCS)c1noc(Cc2noc3ccccc23)n1 (stereo not given),,23.7,33,44.8,25.2,69,31.4,,26.9,31.2,26.1,45.4
Cc1nn(C)c(C)c1[C@@H]1OCC[C@H]1C(=O)NCCS,22,5.2,24.6,24.4,23.1,28.6,6.7,28.3,17.4,28.8,23.9,31.1
O=C(CCS)NCc1cn2cc(Cl)ccc2n1,,14.7,26.2,38.8,32.5,33.8,30,,15.4,28.5,25.1,50.1
O=C(Cc1c[nH]c2cnccc12)NCCS,47.5,23,37.9,38,31.9,46.1,32.6,43,30.8,29.5,35.4,49.6
Cn1c(=O)[nH]c(=O)c2[nH]c(CCC(=O)NCCS)nc21,31.1,12.8,27.7,32.5,29.8,31,17.5,40.1,26.8,32.6,28,37
O=C(NCCS)c1nc[nH]c1C(F)(F)F,32,19.3,38.2,24.7,40.9,30.3,27.6,40.3,45.7,31.3,35.6,38.9
O=C(NCCS)c1cn2c(Br)cnc2s1,37.3,19.2,25.3,23.4,18.8,22.5,48,35.6,19.2,18.2,16.5,34.7
O=C(CCS)N(CCn1ccnc1)Cc1ccsc1,,15.9,44.8,46.4,34.4,48.6,38.3,,42.8,36,37.1,62.1
N#Cc1cccnc1N1CCCN(C(=O)CCS)CC1,,15.3,39.5,52.2,37,48.8,45.1,,32.2,41.1,40.7,69
O=C(CC(c1ccccc1)c1ncc[nH]1)NCCS (stereo not given),39,11.7,31.4,29.2,30.7,34,21.2,34.8,28.2,32.2,26.4,48.8
O=C(NCCS)C1CC1c1c(F)cccc1F (stereo not given),47.3,19.4,27.2,17.3,26.1,53.7,40.5,31.9,9,34.2,16.5,40.4
Cc1ccc(-c2ccncc2)cc1NC(=O)CCS,,24.7,31.6,22.9,20.1,28.2,31.1,,14.2,23,17.3,34.7
O=C(CCS)NC1CC(c2ccccc2F)C1 (stereo not given),,18.1,29.5,25.5,21.1,30.6,46.4,,24.9,28,22.5,50.2
O=C(CCNC(=O)NC1CCCCC1)NCCS,26.1,14.1,31.1,24.1,42.5,25.2,24.2,38.7,26.4,33.1,31.6,39.4
Cc1noc(C)c1CN(C(=O)CCS)C1CC1,,18.3,41.5,39.2,30.8,46.2,45.7,,32.6,36.7,41,59.4
Cc1c(C(=O)NCCS)cccc1-c1ccccn1,40,14,35.3,23.7,31,37.3,30.7,44.3,28.3,40,27,46.2
Cc1[nH]c(=O)c(C#N)c(C)c1CCC(=O)NCCS,38.7,14.5,31.2,34.2,31.5,36.9,18.7,37.8,25.7,34,31.2,44.1
O=C(NCCS)c1c(F)ccc(C(F)(F)F)c1F,37.7,14.6,25.8,17.3,29.3,21,44.7,30.1,25.6,23.9,21.6,26.6
CC1(C)CN(C(=O)CCS)Cc2ccccc2O1,,19.1,39.9,29.3,29.7,34,58,,21.8,32.8,35.4,70.6
